The IC50 is the concentration that gives 50% inhibition. As a reminder, the EC50 is the midpoint of the concentration-response curve. What is called Kd is the free concentration of one partner at which half of the binding sites on the other are occupied at equilibrium, for simple one-to-one binding. For orientation: kon means the rate constant with which the complex forms.

The record followed here is US20190083612A1 (RINAT NEUROSCIENCE, published 2019).

The target in assay [1] is T1, human PD-1 on stably transfected Jurkat cells (human, UniProt Q15116 25-288).
T1 construct: also called Jurkat/Human-PD-1; Human-PD-1/Jurkat
The assay can be described thus: FACS, blockade of biotinylated hu-PD-L2 on human-PD-1/Jurkat, average ± sem.

The target in assay [2] is T1, human PD-1 on stably transfected Jurkat …. The assay can be described thus: FACS, Jurkat/human-PD-1, repeat 1.
Assay [3] deals with T2, Cynomolgus Monkey-FcRn (cynomolgus monkey, UniProt Q8SPV9 24-297, limits assumed).
T2 construct: also called cynomolgus monkey-neonatal Fc receptor
The assay can be described thus: SPR (ProteOn NLC chip), 25 C, pH 5.9.

Assay [4] has as its target hu-FcRn (human neonatal Fc receptor) (human, UniProt P55899 fragment; P61769 fragment, limits assumed). The assay can be described thus: SPR (ProteOn NLC chip), 25 C, pH 5.9.
In assay [5] the target is Cynomolgus Monkey-FCGRIIIa 42S (cynomolgus monkey). The assay can be described thus: SPR (ProteOn NLC chip), 25 C, pH 7.4.
Assay [6] deals with T3, Cynomolgus Monkey-FCGRIIa (cynomolgus monkey).
T3 chain: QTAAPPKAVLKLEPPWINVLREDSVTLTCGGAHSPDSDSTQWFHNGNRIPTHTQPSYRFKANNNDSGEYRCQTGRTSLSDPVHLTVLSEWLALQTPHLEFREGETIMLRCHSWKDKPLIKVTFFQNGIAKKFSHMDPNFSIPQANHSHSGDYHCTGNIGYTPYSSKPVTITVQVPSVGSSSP
The assay can be described thus: SPR (ProteOn NLC chip), 25 C, pH 7.4.

The target in assay [7] is T4, hu-FCGRIIa (hu-CD32a) 131H (human, UniProt P12318 36-218).
T4 sequence (looked up): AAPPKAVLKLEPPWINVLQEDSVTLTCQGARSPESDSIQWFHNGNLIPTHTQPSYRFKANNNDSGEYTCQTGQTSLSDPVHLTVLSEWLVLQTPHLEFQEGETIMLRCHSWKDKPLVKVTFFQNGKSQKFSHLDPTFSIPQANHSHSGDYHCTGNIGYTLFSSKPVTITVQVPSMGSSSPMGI
As to the kind of experiment: SPR (ProteOn NLC chip), 25 C, pH 7.4.

In assay [8] the target is hu-FCGRIIIa (hu-CD16a) 158F (human, UniProt P08637 fragment, limits assumed). The assay can be described thus: SPR (ProteOn NLC chip), 25 C, pH 7.4.
The target of assay [9] is T5, hu-FCGRI (hu-CD64) (human, UniProt P12314 16-288, limits assumed).
T5 construct: also called human Fc gamma receptor I
The assay can be described thus: SPR (ProteOn NLC chip), 25 C, pH 7.4, n = 14.

For assay [10], the target named is T6, human PD-1 (hPD-1) monomer (human, UniProt Q15116 fragment).
T6 construct: also called hu-PD-1; not shown: His tag (His-tagged monomer)
The assay can be described thus: SPR (ProteOn NLC chip), 37 C, n 15.

The target of assay [11] is T7, cynomolgus monkey PD-1 on stably transfected Jurkat cells (cynomolgus monkey).
T7 construct: whole, on cells; also called Jurkat/Cynomolgus Monkey-PD-1; Cynomolgus Monkey-PD-1/Jurkat
The assay can be described thus: FACS, blockade of cyno PD-L1 (20 µg/mL) on cyno-PD-1/Jurkat, repeat 1. In general terms: Flow cytometry measures light scatter and fluorescence of single cells or particles in a stream.

The target of assay [12] is T7, cynomolgus monkey PD-1 on stably …. The assay can be described thus: FACS, Jurkat/cynomolgus monkey-PD-1, average ± sem.
Assay [13] has as its target T1, human PD-1 on stably transfected Jurkat …. As to the kind of experiment: FACS, Jurkat/human-PD-1, repeat 2.
The target is the same in assay [14]. As to the kind of experiment: FACS, blockade of biotinylated hu-PD-L1 on human-PD-1/Jurkat, average ± sem.
The target of assay [15] is T7, cynomolgus monkey PD-1 on stably …. The assay can be described thus: FACS, Jurkat/cynomolgus monkey-PD-1, repeat 2.
The target of assay [16] is T1, human PD-1 on stably transfected Jurkat …. The assay can be described thus: FACS, blockade of biotinylated hu-PD-L1 (20 µg/mL) on human-PD-1/Jurkat, repeat 1.

UniProt P55899, sequence (P55899 24-297 limits assumed, chain 1 of 2): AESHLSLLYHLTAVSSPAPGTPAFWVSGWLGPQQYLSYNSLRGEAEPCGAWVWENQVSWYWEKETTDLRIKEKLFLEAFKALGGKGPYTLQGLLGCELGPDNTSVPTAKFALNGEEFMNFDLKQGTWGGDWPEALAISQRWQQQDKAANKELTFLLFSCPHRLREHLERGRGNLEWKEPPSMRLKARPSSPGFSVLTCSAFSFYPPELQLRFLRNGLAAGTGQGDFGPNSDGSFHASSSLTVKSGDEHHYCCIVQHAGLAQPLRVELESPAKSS
UniProt P55899, sequence (P61769 21-119 limits assumed, chain 2 of 2, further chain): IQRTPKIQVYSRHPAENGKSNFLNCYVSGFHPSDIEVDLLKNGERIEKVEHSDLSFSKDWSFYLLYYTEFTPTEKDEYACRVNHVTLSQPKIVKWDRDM
UniProt P08637, sequence (P08637 17-208 limits assumed): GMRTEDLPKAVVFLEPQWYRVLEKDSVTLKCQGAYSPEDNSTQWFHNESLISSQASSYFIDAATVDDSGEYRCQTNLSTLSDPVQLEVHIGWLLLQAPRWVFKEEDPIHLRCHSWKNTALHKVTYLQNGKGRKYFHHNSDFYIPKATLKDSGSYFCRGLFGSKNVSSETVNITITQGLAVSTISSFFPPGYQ
T5 sequence (P12314 16-288 limits assumed): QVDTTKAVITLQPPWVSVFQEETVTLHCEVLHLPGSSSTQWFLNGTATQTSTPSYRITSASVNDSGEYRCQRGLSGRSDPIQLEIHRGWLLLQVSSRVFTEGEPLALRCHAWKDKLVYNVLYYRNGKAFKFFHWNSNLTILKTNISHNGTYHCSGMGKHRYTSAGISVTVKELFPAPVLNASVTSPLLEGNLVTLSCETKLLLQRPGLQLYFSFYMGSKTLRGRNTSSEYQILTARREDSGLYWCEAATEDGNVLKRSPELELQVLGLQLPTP
T2 sequence (Q8SPV9 24-297 limits assumed, form in doubt): as the sequence (P55899 24-297 limits assumed, chain 1 of 2) above, with N39D, E44Q, G99S, S189G, S190N, L217M, S269T counted along it

B1: mAb7 (human IgG4 kappa, hinge stabilized) (antibody)
heavy: QVQLVQSGAEVKKPGASVKVSCKASGYTFTSYWINWVRQAPGQGLEWMGNIYPGSSLTNYNEKFKNRVTMTRDTSTSTVYMELSSLRSEDTAVYYCARLSTGTFAYWGQGTLVTVSSASTKGPSVFPLAPCSRSTSESTAALGCLVKDYFPEPVTVSWNSGALTSGVHTFPAVLQSSGLYSLSSVVTVPSSSLGTKTYTCNVDHKPSNTKVDKRV[human IgG4 Fc with S228P (EU numbers) skipped]
light: DIVMTQSPDSLAVSLGERATINCKSSQSLWDSGNQKNFLTWYQQKPGQPPKLLIYWTSYRESGVPDRFSGSGSGTDFTLTISSLQAEDVAVYYCQNDYFYPHTFGGGTKVEIKRGTVAAPSVFIFPPSDEQLKSGTASVVCLLNNFYPREAKVQWKVDNALQSGNSQESVTEQDSKDSTYSLSSTLTLSKADYEKHKVYACEVTHQGLSSPVTKSFNRGEC
notes: also called mAb7-G4; mAb7 (G4); copies: 2 + 2
As to B1, the IC50 was found to be 1.06 nM in assay [1], 0.833 nM in [11], 0.88 nM in assay [14] and 0.59 nM in assay [16]. Also, the EC50 is 0.0628 nM in [2], 0.223 nM in assay [12], 0.0666 nM in assay [13] and 0.264 nM in assay [15]. For the same molecule, the Kd in assay [3] was determined as 610 nM; in assay [4] it was 930 nM; in [5], 1600 nM; in assay [6], 2400 nM; in assay [7], 3600 nM; in assay [9] it was 0.146 nM. Further, the binding result in [8] was “binds”. Moreover, in assay [10], the kon was 840000 M⁻¹ s⁻¹.
